According to publication PMC4336329 (PLoS ONE, 2015):
The campaign covered roughly 310,000 compounds. About 14,000 (4.5%) showed an effect of 50% or more. The effect is printed as a negative number. This is one part of the list.
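Also: peak tail current of the secondary pulse compared with the same well before compound.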

These molecules were tested against human ether-à-go-go-related gene (hERG) potassium channel (human, UniProt Q12809) (assay: primary screen, population patch clamp on CHO cells stably expressing hERG).
human ether-à-go-go-related gene (hERG) potassium channel, sequence (Q12809 whole entry, looked up): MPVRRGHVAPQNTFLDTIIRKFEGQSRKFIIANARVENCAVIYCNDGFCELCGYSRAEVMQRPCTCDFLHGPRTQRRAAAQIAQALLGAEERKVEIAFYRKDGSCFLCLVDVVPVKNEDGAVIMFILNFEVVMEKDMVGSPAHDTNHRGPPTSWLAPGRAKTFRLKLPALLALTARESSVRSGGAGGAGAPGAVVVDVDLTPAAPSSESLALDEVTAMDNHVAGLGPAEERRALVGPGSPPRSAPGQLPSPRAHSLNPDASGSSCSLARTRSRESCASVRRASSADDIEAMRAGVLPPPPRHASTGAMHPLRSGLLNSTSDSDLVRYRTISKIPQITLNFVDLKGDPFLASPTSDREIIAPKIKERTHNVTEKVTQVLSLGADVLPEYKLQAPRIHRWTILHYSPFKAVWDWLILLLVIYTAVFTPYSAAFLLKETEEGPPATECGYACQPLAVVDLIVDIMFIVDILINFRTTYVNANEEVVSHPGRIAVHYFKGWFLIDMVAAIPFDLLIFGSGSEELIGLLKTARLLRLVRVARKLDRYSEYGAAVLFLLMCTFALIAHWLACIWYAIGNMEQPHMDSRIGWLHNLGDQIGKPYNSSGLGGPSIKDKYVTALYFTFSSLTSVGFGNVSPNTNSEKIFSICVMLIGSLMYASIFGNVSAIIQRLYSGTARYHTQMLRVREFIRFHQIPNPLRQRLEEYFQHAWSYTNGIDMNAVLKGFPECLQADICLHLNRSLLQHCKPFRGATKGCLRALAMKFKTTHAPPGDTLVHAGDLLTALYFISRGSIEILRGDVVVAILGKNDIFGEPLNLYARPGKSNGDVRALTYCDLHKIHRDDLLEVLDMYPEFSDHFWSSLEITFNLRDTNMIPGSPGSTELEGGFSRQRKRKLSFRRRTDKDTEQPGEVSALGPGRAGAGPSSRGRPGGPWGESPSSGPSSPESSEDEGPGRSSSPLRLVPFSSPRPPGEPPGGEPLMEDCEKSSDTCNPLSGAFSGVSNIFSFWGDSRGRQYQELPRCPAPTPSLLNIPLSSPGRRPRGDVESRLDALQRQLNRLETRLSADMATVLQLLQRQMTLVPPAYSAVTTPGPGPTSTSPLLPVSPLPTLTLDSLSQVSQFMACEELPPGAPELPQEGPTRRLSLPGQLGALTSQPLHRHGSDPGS
With `O=C(COc1ccc(F)cc1)Nc1c(C(=O)N2CCC(N3CCCCC3)CC2)oc2ccccc12` the “hERG current change (%, negative = inhibition) at 10uM” value was -81.1%. In the case of `COc1ccccc1-c1nnc2sc(COc3ccc(Cl)cc3Cl)nn12`, the “hERG current change (%, negative = inhibition) at 10uM” value is reported as -11.6%. In the case of `CCCCn1c(O)c(C(C)=NCCCN(C)C)c(=O)[nH]c1=O`, the “hERG current change (%, negative = inhibition) at 10uM” value is reported as 3.15%. With `O=c1c(-c2ccc(Br)cc2)[n+]([O-])c2ccccc2n1OCc1ccccn1` the “hERG current change (%, negative = inhibition) at 10uM” value was 2.87%. In the case of `CCOc1ccc(N(CC(=O)NC2CC2)S(=O)(=O)c2ccc(C)cc2)cc1`, the “hERG current change (%, negative = inhibition) at 10uM” value is reported as 27.4%. With `O=C(Cn1c2ccccc2c2nc3n(c(=O)c21)CCCS3)Nc1ccccc1` the “hERG current change (%, negative = inhibition) at 10uM” value was 1.09%. For `COc1ccc(OCc2cc(C(=O)NCc3cccc(C)n3)no2)c(Cl)c1`, the “hERG current change (%, negative = inhibition) at 10uM” value was -11.9%. `CCN(C(=O)c1cc2cccc(OC)c2oc1=O)C1CCCCC1` was tested, and the “hERG current change (%, negative = inhibition) at 10uM” value was -9.14%. For `COc1cc(C(=O)OCC(=O)NC2CCCCCC2)ccc1OCC(C)C`, the “hERG current change (%, negative = inhibition) at 10uM” value was 17.3%. `CCN(CC(=O)Nc1cccc(OC)c1)C(=O)c1ccncc1` was tested, and the “hERG current change (%, negative = inhibition) at 10uM” value was 9.73%. For `COc1ccc(OCCSc2nnc(-c3cccnc3)n2N)cc1`, the “hERG current change (%, negative = inhibition) at 10uM” value was 12.5%. In the case of `CCOc1ccc(S(=O)(=O)N2CCCC(C(=O)NC3CC3)C2)cc1Cl` (stereo not shown), the “hERG current change (%, negative = inhibition) at 10uM” value is reported as 1.72%. For `CCCCOc1ccc(OC(=O)c2cccnc2)cc1`, the “hERG current change (%, negative = inhibition) at 10uM” value was 6.59%. With `COc1ccc2sc(-c3ccc(N(C)C)cc3)c(C#CCO)c2c1` the “hERG current change (%, negative = inhibition) at 10uM” value was 14.3%. With `O=c1c(Cc2c(F)cccc2Cl)c(O)ccn1CC1CCCO1` (stereo not shown) the “hERG current change (%, negative = inhibition) at 10uM” value was 13.8%. In the case of `CN=C1SC(CC(=O)Nc2cc(Cl)ccc2Cl)C(=O)N1C` (stereo not shown), the “hERG current change (%, negative = inhibition) at 10uM” value is reported as -2.84%. `O=C(Oc1ccccc1N1C(=O)CCC1=O)c1ccco1` was tested, and the “hERG current change (%, negative = inhibition) at 10uM” value was 1.62%. In the case of `COc1ccc2c(c1)c1nnc(SC)nc1n2C`, the “hERG current change (%, negative = inhibition) at 10uM” value is reported as -5.31%. `CCCn1nnc(NC(=O)c2cc3ccccc3o2)n1` was tested, and the “hERG current change (%, negative = inhibition) at 10uM” value was 9.37%. In the case of `COC(OC)c1ccnc(-c2ccc(OC(C)=O)cc2)n1`, the “hERG current change (%, negative = inhibition) at 10uM” value is reported as 51.2%. With `CCOC(=O)C1(CCOc2ccccc2)CCN(Cc2cccn2-c2ncccn2)CC1` the “hERG current change (%, negative = inhibition) at 10uM” value was -76.4%. In the case of `COc1cc(/C=N/NC(=O)c2cccc(NC(=O)c3ccccc3Cl)c2)ccc1O`, the “hERG current change (%, negative = inhibition) at 10uM” value is reported as -55.6%. `C=CCN=c1scc(-c2ccco2)n1/N=C/c1ccc(O)c(O)c1O` was tested, and the “hERG current change (%, negative = inhibition) at 10uM” value was 10.2%. For `CC1(C)Cc2c(sc3c2c2ncnn2c2nnc(SCC(=O)NCc4ccco4)n32)CO1`, the “hERG current change (%, negative = inhibition) at 10uM” value was -22%. In the case of `CC(C)(C)c1ccc(C(=S)N2CCN(c3ccccc3)CC2)cc1`, the “hERG current change (%, negative = inhibition) at 10uM” value is reported as 12%. In the case of `COc1ccc2nc(NC3=NC(C(=O)Nc4ccc(C)cc4)CC(=O)N3)nc(C)c2c1` (stereo not shown), the “hERG current change (%, negative = inhibition) at 10uM” value is reported as -0.668%. In the case of `Cc1ccc(NC(=O)CSc2nc3[nH]ncc3c(=O)[nH]2)cc1`, the “hERG current change (%, negative = inhibition) at 10uM” value is reported as 5.75%. With `COC(=O)C1=C(c2cccc(C#N)c2)C[C@@H]2CC[C@H]1N2C(=O)NCCOc1ccccc1` the “hERG current change (%, negative = inhibition) at 10uM” value was -10.3%. For `CCOc1ccc2nnnn2n1`, the “hERG current change (%, negative = inhibition) at 10uM” value was 8.59%. `COCc1c(C(=O)N/N=C/c2ccncc2)nnn1-c1nonc1N` was tested, and the “hERG current change (%, negative = inhibition) at 10uM” value was -0.253%. With `CSCCC(NS(=O)(=O)c1ccc2c(c1)Cc1cc(S(=O)(=O)NC(CCSC)C(=O)O)ccc1-2)C(=O)O` (stereo not shown) the “hERG current change (%, negative = inhibition) at 10uM” value was 33.1%. With `Cc1cccc(-n2cc(-c3ccccc3)c3c(N4CCOCC4)ncnc32)c1` the “hERG current change (%, negative = inhibition) at 10uM” value was 30.7%. With `CCC(=O)Nc1cccc(C(=O)/C=C/c2ccc(F)cc2)c1` the “hERG current change (%, negative = inhibition) at 10uM” value was -69.1%. In the case of `O=C([O-])c1cc(-c2cccnc2)nc2ccccc12.[K+]`, the “hERG current change (%, negative = inhibition) at 10uM” value is reported as 6.48%. For `O=c1c2c3c(sc2nc(NCCO)n1Cc1ccco1)CCCCC3`, the “hERG current change (%, negative = inhibition) at 10uM” value was 3.41%. With `CC(=O)Nc1ccc(S(=O)(=O)NNC(=O)c2cccc3ccccc23)cc1` the “hERG current change (%, negative = inhibition) at 10uM” value was 8.91%. `O=C(C1COc2ccccc2O1)N1CCN(S(=O)(=O)c2ccccc2)CC1` (stereo not shown) was tested, and the “hERG current change (%, negative = inhibition) at 10uM” value was -30.2%. `C/C(=N\Nc1nc2ccccc2[nH]1)c1cccs1` was tested, and the “hERG current change (%, negative = inhibition) at 10uM” value was -19.2%. `O=C(Nc1ccc(C(=O)O)cc1)/C(=C\C=C\c1ccccc1)NC(=O)c1cccc(Br)c1` was tested, and the “hERG current change (%, negative = inhibition) at 10uM” value was 3.03%. With `COc1ccccc1NC(=O)C(CC=C(Cl)Cl)C(C)=O` (stereo not shown) the “hERG current change (%, negative = inhibition) at 10uM” value was 21.6%. For `CN(C)CCn1c2c(c(SCC(=O)Nc3nccs3)nc1=O)CCCC2`, the “hERG current change (%, negative = inhibition) at 10uM” value was -30%. With `CCCCn1c(=O)c(C(=O)Nc2nnc(C(C)C)s2)c(O)c2ccccc21` the “hERG current change (%, negative = inhibition) at 10uM” value was -2.58%. With `CCN(CC)S(=O)(=O)c1cccc(-c2nnc(C(=O)c3ccc(C(F)(F)F)cc3)o2)c1` the “hERG current change (%, negative = inhibition) at 10uM” value was 8.73%. In the case of `O=[N+]([O-])c1ccc(Cl)c(S(=O)(=O)/N=C(/c2ccccc2)N2CCOCC2)c1`, the “hERG current change (%, negative = inhibition) at 10uM” value is reported as 3.91%. `O=C1NC(=O)C(=Cc2ccc(SC3CCCCC3)o2)C(=O)N1` was tested, and the “hERG current change (%, negative = inhibition) at 10uM” value was 18.7%. For `O=C(CCC1CCCN(C(=O)COc2ccccc2)C1)N1CCN(c2ccccn2)CC1` (stereo not shown), the “hERG current change (%, negative = inhibition) at 10uM” value was -26.6%. `O=c1c(O)c(-c2ccc(O)cc2)oc2cc(O)cc(O)c12` was tested, and the “hERG current change (%, negative = inhibition) at 10uM” value was 7.99%. With `COC/C=C/C1=CC2=CC(=O)C(C)(OC(=O)c3cnc4ccccc4n3)C(=O)C2=CN1C1CCCC1` (stereo not shown) the “hERG current change (%, negative = inhibition) at 10uM” value was -10.8%. In the case of `Cc1cc(=O)oc2cc(NC(=O)c3cc([N+](=O)[O-])ccc3N3CCOCC3)ccc12`, the “hERG current change (%, negative = inhibition) at 10uM” value is reported as -36.9%. For `COc1ccc(C(OCC(O)CNCCc2ccccc2)c2ccc(OC)cc2)cc1.O=C(O)C(=O)O` (stereo not shown), the “hERG current change (%, negative = inhibition) at 10uM” value was -63.7%. `CCOc1cc(C2C(C(=O)c3ccc(C)o3)=C(O)C(=O)N2CCc2ccccc2)ccc1O` (stereo not shown) was tested, and the “hERG current change (%, negative = inhibition) at 10uM” value was 12.4%. With `Cc1ccc(NC(=O)CSc2nnc(C)c(=O)[nH]2)cc1C` the “hERG current change (%, negative = inhibition) at 10uM” value was 12.2%. For `COc1cccc(/C=N/NC(=S)NCCc2ccccc2)c1`, the “hERG current change (%, negative = inhibition) at 10uM” value was 10.5%. In the case of `Cc1ccccc1Cn1nc(C)c(NC(=O)c2sc3ccccc3c2Cl)c1C`, the “hERG current change (%, negative = inhibition) at 10uM” value is reported as -6.69%. With `COC(=O)Cc1ccc(NC(=S)Nc2cccc(C)n2)cc1` the “hERG current change (%, negative = inhibition) at 10uM” value was 13.4%.
